The supplement of paper PMC11417369
± gives the standard deviation of the averaged measurements. Some of the results follow.

The sequences below were run on PfAP2-I AP2 domain 3 (GST-tagged) (assay: gcPBM binding intensity (ln(normalized median fluorescence intensity)); higher = stronger DNA binding).
Procedure, shortened: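 GST-fused DNA-binding domains of P. falciparum, expressed in E. coli, were applied at about 25 μg on average for 1 h to an Agilent 4 × 180k array of primer-extended double-stranded 36-bp intergenic genomic probes and negative controls. Binding intensity is the highest Masliner-normalised natural-log median intensity across replicate spots of either probe orientation, measured with Alexa488 anti-GST antibody and a 488 nm scan.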

Row | Sequence | gcPBM binding intensity (ln)
1 | GATATATAAATAAATACACACATAAAATAGAAATAT [CACACA_site6881] | 7.89 ± 0.68
2 | ATTAAAGAAATATATACACACATTATGGGGGAATAA [CACACA_site178] | 8.63 ± 0.26
3 | TGCTACATAATATGTACACACATATACATATTTATA [CACACA_site6545] | 7.95 ± 0.29
4 | TATCACATTTATGAGAGTACATAATTAATTCATGAT [XGTACX_site7850] | 7.55 ± 0.25
5 | GTATGATTAAATAAAGGTACACTTATATTTATTTAT [XGTACX_site6966] | 7.87 ± 0.3
6 | CATAATACAAATGTGATACCTGAAAATGACTTATTA [CACACA_negctrl_site994] | 7.38 ± 0.61
7 | TTCTTTTTTGTAATAACACACACACTAACAGAAAAA [CACACA_site8646] | 8.45 ± 0.3
8 | GAATTAATTTTAAAACGTACATGGGTGTATTTACAC [XGTACX_site5939] | 8.41 ± 0.26
9 | ATTGATACATCCAATACACACTACAGATAATGATGT [CACACA_site5098] | 7.71 ± 0.61
10 | GTAATAAATTAAATATGTACATATTAAAATTAAGGA [XGTACX_site2290] | 7.88 ± 0.34
11 | CAATTTTTATGTGTGTGTACTCATTTGTTTTATAAA [XGTACX_site406] | 8.12 ± 0.38
12 | TTGGAATAATATAAATAAATAAATATATATATATAT [CACACA_negctrl_site900] | 9.05 ± 0.28
13 | ATACAACAGATATATACACACATATAACAATAATAA [CACACA_site7560] | 8.04 ± 0.42
14 | TTTCTTTTTGTTCGTGTACACACATGAAATTTATAA [CACACA_site8466] | 8.98 ± 0.57
15 | AAAAAAAAAAAATGTGCACACGCGTACACCCAAAAA [CACACA_site8614] | 9.12 ± 0.4
16 | AATTATACATATATTTAACACACATTTTATAAAGTG [CACACA_site8362] | 7.85 ± 0.44
17 | ATATATATATATAATTGTACATGTGTGTATAATTTG [XGTACX_site2417] | 9.325 ± 0.064
18 | TTTTATTTTATATAACAACAAAATGGAAATATATAT [GTGCAC_negctrl_site71] | 7.89 ± 0.59
19 | ATATTATGAAGGGATATTTTCAAAAATATTAGGAGA [CACACA_negctrl_site942] | 7.89 ± 0.64
20 | TAAATGAAAATAAATTAACACACAATTTTAATATTG [CACACA_site8360] | 7.37 ± 0.55
21 | GTCAATATTTAGATATGTACTAAGGAGTGCTATATA [XGTACX_site222] | 10.2 ± 0.55
22 | ATTTATTTTAATTTTTTTTTTTCTCTTTTGGATCTA [CACACA_negctrl_site1408] | 7.21 ± 0.86

Row | Sequence | gcPBM binding intensity (ln)
23 | AATGAATTTAATTCTACTATTTTTTTTTTAAATATT [XGTACX_negctrl_site296] | 7.24 ± 0.79
24 | TGTAATATGAAATGTGTACACACGCACCCACAAAAA [CACACA_site8948] | 9.31 ± 0.23
25 | TTCTCAAAGTTTACGTGTACATAAATTATATAAATG [XGTACX_site2622] | 8.04 ± 0.15
26 | ATTAGGCATATTTTCTGTACACAATAATAAAAAAAA [XGTACX_site3957] | 8.09 ± 0.24
27 | ATATATATATATGCATGTACATATATTTGTTATATC [XGTACX_site3197] | 9.22 ± 0.27
28 | TTCCCTTATTTTGTATGTACACAATTTATCATGTTG [XGTACX_site2896] | 8.29 ± 0.59
29 | AAACAAAGGGAACATGTGCACTTACAAAAAAAAAGA | 9.78 ± 0.28
30 | AATAGATATATAAATACACACAAACATACCTATATA [CACACA_site7823] | 7.67 ± 0.45
31 | TCACACCTTTTTGGTTGTACTTAAATTTCTTTTTTT [XGTACX_site6438] | 7.58 ± 0.44
32 | AATTTCTTCCATTGTAGTACTCAATTTTTTTTTGTT [XGTACX_site5847] | 8.12 ± 0.6
33 | CACATATACAAAAAGAAATGTTTAGTTGAAAATTAA [CACACA_negctrl_site1407] | 7.31 ± 0.51
34 | GTGTAATATTATATATATATATATAATATATATACA [CACACA_negctrl_site263] | 7.97 ± 0.28
35 | AAAAAAAAAAAAATGGTGCAACTTTGTTAAAGGAAA [GTGCAC_site9950] | 9.56 ± 0.12
36 | ATTAAATACATTAACACACACACAAATAAATACATA [CACACA_site5583] | 7.91 ± 0.3
37 | TTTTATTATTTGTCTTGTACTCATTGTAAGAGTATG [XGTACX_site1538] | 7.81 ± 0.41
38 | GACAGATTATAGCATAGTACTCATACATACATACAT [XGTACX_site1252] | 8.86 ± 0.37
39 | TACATACATACATACACACACACATCTATATTTATA [CACACA_site6171] | 8.9 ± 0.55
40 | TTTCAAAAATTATTTTGTACATATAATTAATATACG [XGTACX_site512] | 7.54 ± 0.29
41 | TAAACTATATTTACATGTACATATAATATTAAATAA [XGTACX_site3528] | 7.7 ± 0.3
42 | CCTATAAAACCATATACACACATATAAATAAAAAAA [CACACA_site7809] | 7.75 ± 0.4
43 | TGATAATAAGCATACACACACACACCCAAAAAAAAA [CACACA_site721] | 8.26 ± 0.32
44 | TATTACATTATTCAAAAAAATTTATATGGTTATAGG [CACACA_negctrl_site1657] | 7.5 ± 0.39

Row | Sequence | gcPBM binding intensity (ln)
45 | ATATATATATATATATATATATATATGATTATTACT [GTGCAC_negctrl_site109] | 9.21 ± 0.6
46 | AAATAAAAAAAAAAAAAAAATAACTTAAATGGGATA [TGCATGCA_negctrl_site595] | 7.2 ± 0.45
47 | AACTAAATGTTATTCGCACACGGAATTTATTTAATG [CACACA_site3664] | 7.96 ± 0.59
48 | TTTTTTTTTTCTTTTTTTCTCATGAAATTCTAAATG [CACACA_negctrl_site918] | 7.88 ± 0.57
49 | ATTAATATGAATAAAACACACATATATAACTTGTAA [CACACA_site6989] | 7.64 ± 0.46
50 | AATTATACTCACGTTACACACACACTATAAATATAT [CACACA_site7863] | 8.43 ± 0.68
51 | AAAAATTTGGCATACACACACACACGCACACGCACA [CACACA_site6422] | 8.54 ± 0.25
52 | TATATATGGGTACTAATTCCTTTAATTTCTTTAATT [CACACA_negctrl_site949] | 7.58 ± 0.46
53 | TAGTAAAAGATATACACACACCAAAAAATATAATTA [CACACA_site7142] | 7.79 ± 0.57
54 | AATTATATTCAAAATGGTACACACAATATTTAATTG [XGTACX_site5521] | 7.81 ± 0.34
55 | AAAAAAAAATTAGGGGTGCCATTTGCTGCTGTGCTT [GTGCAC_site9913] | 9.04 ± 0.15
56 | TTTTGTATTTCTCACACACACATAAGTAAACAATAA [CACACA_site5105] | 8.08 ± 0.49
57 | ATAATTCATGTTTAGTGTACAAAAAATTAAAGCAAC [XGTACX_site8891] | 8.63 ± 0.38
58 | TATATATATATAATATGTACATATATATATTCTTAA [XGTACX_site6154] | 9.01 ± 0.11
59 | AAATAATTTATATGTAGTACATGTTGTAGATAATTT [XGTACX_site1031] | 8.16 ± 0.28
60 | ATGCATCATTTATTTGCACACCTATTATATACTTTT [CACACA_site2097] | 10.1 ± 0.25
61 | TGATTATATAAAAAAAAGAAAAAAAAAAAAAAAAAA [CACACA_negctrl_site819] | 8.22 ± 1.2
62 | TTATGATAACTTTGCACACACTTAGGAAAAGTTATG [CACACA_site6836] | 8.79 ± 0.19
63 | ATCTTTATTTTTAGCGCACACATAAAATAATAATAA [CACACA_site3458] | 10.2 ± 0.55
64 | CAAAGCATTTTATCTACACACATATATAAATAAATA [CACACA_site7500] | 7.62 ± 0.39
65 | TTTTTTTTTTTATGTGCACACAAAAGATGCTTATAT [CACACA_site2347] | 10.1 ± 0.28
66 | TGATGCAAGATATATACACACATATAAATATAAATA [CACACA_site7429] | 7.67 ± 0.6

Row | Sequence | gcPBM binding intensity (ln)
67 | TATTTTAACTTTTTTTCCTTTATTCATTTTTTTTTC [CACACA_negctrl_site971] | 7.57 ± 0.79
68 | AAATATATATATATATGTACACACACACATATAAAT [XGTACX_site847] | 8 ± 0.43
69 | CACACTAAAAGACACACACACACACGCATATAAATA [CACACA_site7874] | 8.14 ± 0.25
70 | ATTAAACATACATATACACACACACCCACCCACCCA [CACACA_site8057] | 8.63 ± 0.48
71 | TAGTGTAAAAAATACGCATGTGTACAAATATAATAA [TGCATGCA_site498] | 8.22 ± 0.44
72 | TTGTAGGAATTTATTTTGACTGATAATTAATACGTT [GTGCAC_negctrl_site46] | 7.38 ± 0.57
73 | TAAAGGTGTAAAACTGCATGCTGGAGAAAAGTAAAA [TGCATGCA_site591] | 8.24 ± 0.95
74 | AATAATACGTTAAATGTTCTTACAAGTTGGTTTCAT [CACACA_negctrl_site1029] | 7.66 ± 0.46
75 | AAAAAAAAAAAAAAGTGTACCTTATTATACTTTAAT [XGTACX_site8439] | 7.94 ± 0.38
76 | AAAAAAAAATTTGTATCACACACGTATTATAAAAAA [CACACA_site6] | 7.61 ± 0.52
77 | ATTATATAATATAATGCATGTGTTAATGAAAAATCT [TGCATGCA_site426] | 8.05 ± 0.75
78 | GATATGTACTAATACACACACATATATATATATATA [CACACA_site1022] | 9.28 ± 0.28
79 | ATAATTTTTATTTGTACACACATACAGATATATTAT [CACACA_site4701] | 8.09 ± 0.45
80 | GATATAGATATTAATTGTACATATTATTTATTGTTA [XGTACX_site846] | 7.62 ± 0.36
81 | TTCTAAAAAGGGTGTACACAAACGAATGGAAAATAA [CACACA_site5483] | 8.77 ± 0.54
82 | TAATTTGTTAAAGGTTCACATATGGTATATACTTCT [XGTACX_negctrl_site292] | 7.63 ± 0.51
83 | TAATAAGGTTACAACAAACACACAAAGGAATATACA [CACACA_site4089] | 8.07 ± 0.69
84 | GATATGATTAACTTATGTTATTCTTGATGGTTTCTT [GTGCAC_negctrl_site411] | 7.36 ± 0.58
85 | TTATAAAACCATGTCATCAACATAGGCACAAAAATG [CACACA_negctrl_site1160] | 8.05 ± 0.72
86 | TATCACAAAATATACTGTACATACAGGCAGTAATAT [XGTACX_site2487] | 8.11 ± 0.42
87 | AAGAATCACCAAATATGTACACACCTTAACATGTTT [XGTACX_site4272] | 7.95 ± 0.56
